Experimental data published in PubChem BioAssay AID504832 (National Center for Advancing Translational Sciences (NCATS), 2011).
Hit rate of the full screen: of about 310,000 compounds, about 18,000 (5.8%) were called active. This list was built around the results that the source calls inconclusive (neither active nor inactive); the mix of calls is not that of the screen. Calls come from the whole dose curve; as a rule, active = well fitted inhibition curve with a large enough effect; inconclusive = small, poorly fitted or top-dose-only effect, or another doubt; inactive = no such curve, though single readings can be large or run the other way. Potencies of inconclusive entries are left out as doubtful fits.

Test: Primary qHTS for delayed death inhibitors of the malarial parasite plastid, 48 hour incubation
Settings: P. falciparum luciferase growth in erythrocytes; series mostly up to 28.7 µM
Method in brief: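 Here the parasites carry a stable luciferase gene and grow inside erythrocytes in Albumax-based RPMI medium with compound for one erythrocytic cycle. Activity is scored as loss of luminescent signal.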
Potency is the fitted concentration of half-maximal effect; tags give direction and shape of the fitted curve.

Q: For `CCOc1ccc(OCc2ccc(C(=O)N3CCCCC3)o2)cc1`, which Potency is on record?
A: inactive

Q: Which Potency does the source give for `O=C1c2cccc(OCC(=O)N3N=C(c4cccs4)CC3c3ccc(F)cc3)c2CCN1Cc1cccnc1` (stereo not given) here?
A: active: 1.47 µM

Q: For `CCc1ccc(CN2CCN(Cc3ccc(SC)cc3)CC2)cc1`, which Potency is on record?
A: inconclusive [inhibitor, single point]

Q: Which Potency does the source give for `C=CCOc1cccc(/C=C2\C(=O)N(Cc3ccc(C)cc3)C(C)=C2C(=O)OC)c1` here?
A: active: 14.7 µM

Q: Which Potency does the source give for `CCCn1c(=N)n(CCOc2ccc(OC)cc2)c2ccccc21` here?
A: active: 14.7 µM

Q: With `C[C@@H](NC(=O)Cn1ccc(N)nc1=O)c1cccc2ccccc12` as the molecule, how does the Potency read?
A: inactive

Q: For `CCc1ccc(C2CC(=O)Nc3c2c(=O)nc2c(C)cccn32)cc1` (stereo not given), which Potency is on record?
A: inactive

Q: Which Potency does the source give for `CC(C)(C)c1ccc(C(=O)NN=C2CCCC2)cc1` here?
A: inactive

Q: Which Potency does the source give for `COc1ccc(N=C2SC(C(=O)N3CCN(c4ccccc4)CC3)CC(=O)N2C)cc1` (stereo not given) here?
A: inconclusive [inhibitor, single point]

Q: For `CCCCCSc1nnc2c(n1)OC(c1cccn1C)N(C(C)=O)c1ccccc1-2` (stereo not given), which Potency is on record?
A: inconclusive [inhibitor, partial curve, poor fit]

Q: For `COc1ccc(/C=C/C(=O)Nc2ccc(-n3nncc3-c3ccccc3)cc2)cc1OC`, which Potency is on record?
A: inconclusive [inhibitor, single point]

Q: Which Potency does the source give for `COc1ccccc1C(=O)NCCC(=O)N(C)CC(=O)Nc1c(Cl)cccc1Cl` here?
A: inconclusive [inhibitor, single point]

Q: For `Brc1c(CSc2nncc3ccccc23)nc2ccccn12`, which Potency is on record?
A: inconclusive [inhibitor, partial curve, poor fit]

Q: Which Potency does the source give for `COc1cc(OC)cc(C(=O)N[C@H](C(=O)OCC(=O)N2CCc3ccccc32)C(C)C)c1` here?
A: inconclusive [inhibitor, single point]

Q: Which Potency does the source give for `COCCn1c(SCC(=O)Nc2ccccc2)nc2c(oc3ccccc32)c1=O` here?
A: inactive

Q: Which Potency does the source give for `CNCC(=O)Nc1ccc(Cl)c(C(F)(F)F)c1` here?
A: inactive

Q: For `O=[N+]([O-])c1nn(-c2ccccc2)n(O)c1=NCCc1ccccc1`, which Potency is on record?
A: active: 4.15 µM

Q: For `CCOc1ccc(/C=N/NC(=O)c2nnn(-c3nonc3N)c2CN2CCC(C)CC2)cc1`, which Potency is on record?
A: inconclusive [inhibitor, single point]

Q: With `Cc1ccc(C)c(N2CCN(S(=O)(=O)c3ccc(-c4cc(C)no4)s3)CC2)c1` as the molecule, how does the Potency read?
A: inactive

Q: Which Potency does the source give for `O=C(Nc1ccncc1)c1cc(F)cc(F)c1` here?
A: inconclusive [inhibitor, full curve]

Q: Which Potency does the source give for `C=C[C@@H]1c2cc(C)ccc2N(S(=O)(=O)c2ccc(C)cc2)[C@H](c2ccc(OC(C)=O)cc2)C1(C#N)C#N` here?
A: inconclusive [inhibitor, partial curve]

Q: Which Potency does the source give for `COc1ccc(S(=O)(=O)NC2CC2)cc1Br` here?
A: inactive

Q: With `c1ccc(-c2cccc(-c3ccccn3)n2)nc1` as the molecule, how does the Potency read?
A: active: 1.47 µM

Q: With `Cc1nnc(SCC(=O)Nc2cc(Cl)ccc2Cl)n1CC1CCCO1` (stereo not given) as the molecule, how does the Potency read?
A: inactive

Q: With `O=c1cc(/C=C/c2cccs2)[nH]c2ccccc12` as the molecule, how does the Potency read?
A: active: 9.28 µM

Q: Which Potency does the source give for `CCC(C)OC(=O)C1=C(C)O[C@]23OC(N)=C(C#N)[C@]12C(=O)c1ccccc13` (stereo not given in full) here?
A: inconclusive [inhibitor, single point]

Q: Which Potency does the source give for `CN(C)C(=O)COC(=O)c1cccc(S(=O)(=O)N2CC3(C)CC2CC(C)(C)C3)c1` (stereo not given) here?
A: inconclusive [inhibitor, partial curve, poor fit]

Q: With `O=C(/C=C/c1c(F)cccc1Cl)NCCCN1CCOCC1` as the molecule, how does the Potency read?
A: inactive

Q: Which Potency does the source give for `CN(Cc1ccc(F)cc1)C(=O)c1ccc(NC(=O)CC2SC(N3CCCC3)=NC2=O)cc1` (stereo not given) here?
A: inconclusive [inhibitor, single point]

Q: Which Potency does the source give for `O=C(c1ccc([N+](=O)[O-])o1)N1CCc2ccccc21` here?
A: inconclusive [inhibitor, partial curve, poor fit]

Q: For `Nc1ccc(Nc2ccccc2N)cc1`, which Potency is on record?
A: inconclusive [inhibitor, single point]

Q: With `O=C(NNC(=O)c1cc(-c2ccc(Cl)c(Cl)c2)nc2ccccc12)Nc1ccccc1` as the molecule, how does the Potency read?
A: inconclusive [inhibitor, single point]

Q: Which Potency does the source give for `COCCN(Cc1ccccc1)C(=O)c1cccc(S(=O)(=O)N2CCCc3ccccc32)c1` here?
A: inconclusive [inhibitor, single point]

Q: For `Cc1ccc(-n2nc3c(=O)n(CCCC(=O)NCc4cccc(Cl)c4)nc(C)c3c2C)cc1`, which Potency is on record?
A: active: 9.28 µM

Q: For `Cc1ccc(C)c(OCCC(=O)Nc2cccc(S(=O)(=O)NC3=NCCCCC3)c2)c1`, which Potency is on record?
A: inconclusive [inhibitor, single point]

Q: For `C1CCC(CNc2c3c(nc4nnnn24)CCCC3)CC1`, which Potency is on record?
A: inconclusive [inhibitor, full curve, poor fit]

Q: With `CN1CCN(c2nc(-c3ccccc3)c3cc(Cl)ccc3n2)CC1` as the molecule, how does the Potency read?
A: inconclusive [inhibitor, single point]

Q: Which Potency does the source give for `CCCC[n+]1ccc(-c2nc3ccc([N+](=O)[O-])cc3[nH]2)cc1` here?
A: inconclusive [inhibitor, single point]

Q: For `O=C(CNC(=O)c1cc(Cl)nc2ccccc12)Nc1ccccc1Br`, which Potency is on record?
A: inconclusive [inhibitor, single point]

Q: Which Potency does the source give for `COc1ccc2c(Cl)c(C(=O)NC3CCS(=O)(=O)C3)sc2c1` (stereo not given) here?
A: inactive

Q: With `COc1ccc(NC(=O)CNc2cc(C)ccc2C)cc1S(=O)(=O)N1CCOCC1` as the molecule, how does the Potency read?
A: inconclusive [inhibitor, partial curve, poor fit]

Q: With `NC(Cc1ccccc1)c1nc2ccccc2[nH]1` (stereo not given) as the molecule, how does the Potency read?
A: inactive

Q: With `Cc1ccc(C(=O)Nc2nc3ccccc3n2CCN2CCCC2)cc1` as the molecule, how does the Potency read?
A: inconclusive [inhibitor, single point]

Q: With `O=[N+]([O-])c1ccc(NC(=S)NCCc2ccccc2)cc1` as the molecule, how does the Potency read?
A: inconclusive [inhibitor, single point]

Q: For `COCCn1c(SCC(=O)N2CCc3ccccc3C2)nc2cc(Cl)ccc2c1=O`, which Potency is on record?
A: inconclusive [inhibitor, single point]
